Results: the supplement of paper PMC11417369
± gives the standard deviation of the averaged measurements. The list shows a part of the results.

Tested on: PfAP2-EXP AP2 domain (GST-tagged)
Assay: gcPBM binding intensity (ln(normalized median fluorescence intensity)); higher = stronger DNA binding
Summary of the method: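 GST-fused DNA-binding domains of P. falciparum, expressed in E. coli, were applied at about 25 μg on average for 1 h to an Agilent 4 × 180k array of primer-extended double-stranded 36-bp intergenic genomic probes and negative controls. Binding intensity is the highest Masliner-normalised natural-log median intensity across replicate spots of either probe orientation, measured with Alexa488 anti-GST antibody and a 488 nm scan.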

Row | Sequence | gcPBM binding intensity (ln)
1 | ACATATATTATATAACGTACATAACACTATTTCCTT [XGTACX_site6938] | 8.87 ± 0.26
2 | TTTTTTTTTTGTAATTGTACTTTTTTAATACTTCTA [XGTACX_site4195] | 8.6 ± 0.33
3 | TATATATATATATTCACACATAAATATATGCACCCA [CACACA_site4263] | 9.96 ± 0.2
4 | TATACATATATATACACACACATATATATATATATA [CACACA_site4] | 10 ± 0.31
5 | AGTATAGTTATAAATTGTACATATTATTTATTTTAT [XGTACX_site949] | 8.44 ± 0.23
6 | TAAGTCGCCAAAAGGTGTACACATAATGCATTATCA [XGTACX_site8852] | 9.14 ± 0.37
7 | ATGGGGAATAATGAATGTACACAAATAAAAAGTTGG [XGTACX_site4015] | 9.1 ± 0.47
8 | TAATATCATTTAGACACACACTCTTACAATCTGTAA [CACACA_site2590] | 8.2 ± 0.54
9 | AATCATTTATGGAAAGCATGCTAAATTAGAGTATAC [TGCATGCA_site172] | 9.29 ± 0.5
10 | ATCTAAACCTTTTGAGCACACATATATATATATATA [CACACA_site8526] | 9.86 ± 0.7
11 | TAAAAATAAAAATAACGTACATACATACTTATATAT [XGTACX_site3745] | 8.11 ± 0.17
12 | TAATTTTTTTAAAACACACAAATATGTAAATATGTA [CACACA_site7769] | 8.27 ± 0.41
13 | ATAAAATCTTAATCAACAAACAAACAAAAAAAAAAT [CACACA_negctrl_site1161] | 8.63 ± 0.73
14 | GATTTTCATATTTTTTGTACTTACATTTTTCTATAC [XGTACX_site6002] | 9.01 ± 0.45
15 | TATGTGATATATTTATCACACATTATATATATATAT [CACACA_site5103] | 9.99 ± 0.22
16 | TATGATGATGAATAACGTACAAAAAAATTAATCACC [XGTACX_site6794] | 8.94 ± 0.42
17 | TACATTTTTATTTTTACACACATATTTATTTATATA [CACACA_site6609] | 8.74 ± 0.55
18 | TAATATGAAAAGTGTACACACGCACAGACAAAAAAA [CACACA_site5594] | 9.21 ± 0.54
19 | GCATAAATCAGACACACACACATATATAAATATGTA [CACACA_site7187] | 8.4 ± 0.34
20 | AATATTTAATTCAACACACATACATATTTATTAAAA [CACACA_site2342] | 8.32 ± 0.52
21 | ATTCATTTTAATATGGGTACATAAAAATAAAAAGAA [XGTACX_site2801] | 8.75 ± 0.13
22 | TGTTTATTTTTTTTATGTACTTATTTTTTATTGCAT [XGTACX_site719] | 9.04 ± 0.32
23 | ATAAATATATGGTTTCATTATATTAAATTCAATTTA [CACACA_negctrl_site213] | 8.04 ± 0.32
24 | AACTTATTAAGCCCTCCACATTTCTCTACTACAACT [CACACA_negctrl_site1552] | 8.61 ± 0.43
